# Experimental data taken from paper PMC9911399, “Two distinct binding modes provide the RNA-binding protein RbFox with extraordinary sequence specificity”.
# Positions count from the first letter of the chain named. Some of the results follow.
# T1: RBFOX1 RRM (Homo sapiens, UniProt Q9NWB1 109-208)
# T1 sequence: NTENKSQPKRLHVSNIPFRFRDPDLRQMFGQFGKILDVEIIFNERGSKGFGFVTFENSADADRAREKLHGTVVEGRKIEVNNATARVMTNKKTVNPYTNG
# B1: CGUAGCC (DNA:RNA)
# RNA: GGGAGACCGGAAUUCAGAUUGUCCCGUAGCCUUAAAUCCCGUCGUAGCCACCA
# DNA 1: CAATCTGAATTCCGGTCTCCC
# DNA 2: TGGTGGCTACGACGGGATT
# B2: GGAACGG (DNA:RNA)
# RNA: B1 RNA with C25G, U27A, G29C, C30G, C31G
# DNA 1: CAATCTGAATTCCGGTCTCCC
# DNA 2: TGGTGGCTACGACGGGATT
# B3: GCAUGGU (DNA:RNA)
# RNA: B1 RNA with C25G, G26C, U27A, A28U, C30G, C31U
# DNA 1: CAATCTGAATTCCGGTCTCCC
# DNA 2: TGGTGGCTACGACGGGATT
# B4: AAUGCCA (DNA:RNA)
# RNA: B1 RNA with C25A, G26A, A28G, G29C, C31A
# DNA 1: CAATCTGAATTCCGGTCTCCC
# DNA 2: TGGTGGCTACGACGGGATT
# B5: GCCCACA (DNA:RNA)
# RNA: B1 RNA with C25G, G26C, U27C, A28C, G29A, C31A
# DNA 1: CAATCTGAATTCCGGTCTCCC
# DNA 2: TGGTGGCTACGACGGGATT
# B6: GUGUCAG (DNA:RNA)
# RNA: GGGAGACCGGAAUUCAGAUUGUCCGUGUCAGUUAAAUCCCGUCGUAGCCACCA
# DNA 1: CAATCTGAATTCCGGTCTCCC
# DNA 2: TGGTGGCTACGACGGGATT
# B7: AAUUUUA (DNA:RNA)
# RNA: B1 RNA with C25A, G26A, A28U, G29U, C30U, C31A
# DNA 1: CAATCTGAATTCCGGTCTCCC
# DNA 2: TGGTGGCTACGACGGGATT
# B8: CAAACAU (DNA:RNA)
# RNA: B1 RNA with G26A, U27A, G29C, C30A, C31U
# DNA 1: CAATCTGAATTCCGGTCTCCC
# DNA 2: TGGTGGCTACGACGGGATT
# B9: CCUUCUG (DNA:RNA)
# RNA: B6 RNA with G25C, U26C, G27U, A30U
# DNA 1: CAATCTGAATTCCGGTCTCCC
# DNA 2: TGGTGGCTACGACGGGATT
# B10: ACUUCUU (DNA:RNA)
# RNA: B6 RNA with G25A, U26C, G27U, A30U, G31U
# DNA 1: CAATCTGAATTCCGGTCTCCC
# DNA 2: TGGTGGCTACGACGGGATT
# B11: AUUGUUC (DNA:RNA)
# RNA: B1 RNA with C25A, G26U, A28G, G29U, C30U
# DNA 1: CAATCTGAATTCCGGTCTCCC
# DNA 2: TGGTGGCTACGACGGGATT
# B12: GUUCGUU (DNA:RNA)
# RNA: B1 RNA with C25G, G26U, A28C, C30U, C31U
# DNA 1: CAATCTGAATTCCGGTCTCCC
# DNA 2: TGGTGGCTACGACGGGATT
# B13: GUUGAGU (DNA:RNA)
# RNA: B6 RNA with G27U, U28G, C29A, A30G, G31U
# DNA 1: CAATCTGAATTCCGGTCTCCC
# DNA 2: TGGTGGCTACGACGGGATT
# B14: AAGGGGU (DNA:RNA)
# RNA: B1 RNA with C25A, G26A, U27G, A28G, C30G, C31U
# DNA 1: CAATCTGAATTCCGGTCTCCC
# DNA 2: TGGTGGCTACGACGGGATT
# B15: GAAUAAC (DNA:RNA)
# RNA: B6 RNA with U26A, G27A, C29A, G31C
# DNA 1: CAATCTGAATTCCGGTCTCCC
# DNA 2: TGGTGGCTACGACGGGATT
# B16: AGUCGGC (DNA:RNA)
# RNA: B1 RNA with C25A, A28C, C30G
# DNA 1: CAATCTGAATTCCGGTCTCCC
# DNA 2: TGGTGGCTACGACGGGATT
# B17: AAUGUCC (DNA:RNA)
# RNA: B1 RNA with C25A, G26A, A28G, G29U
# DNA 1: CAATCTGAATTCCGGTCTCCC
# DNA 2: TGGTGGCTACGACGGGATT
# B18: CGCCCCG (DNA:RNA)
# RNA: B1 RNA with U27C, A28C, G29C, C31G
# DNA 1: CAATCTGAATTCCGGTCTCCC
# DNA 2: TGGTGGCTACGACGGGATT
# B19: GUAAAGG (DNA:RNA)
# RNA: B6 RNA with G27A, U28A, C29A, A30G
# DNA 1: CAATCTGAATTCCGGTCTCCC
# DNA 2: TGGTGGCTACGACGGGATT
# B20: CGCGGCC (DNA:RNA)
# RNA: B1 RNA with U27C, A28G
# DNA 1: CAATCTGAATTCCGGTCTCCC
# DNA 2: TGGTGGCTACGACGGGATT
# Target: T1, RBFOX1 RRM
# Assay: EMSA; HiTS-Eq, 1 nM pool, 10 min; buffer printed only for the single-RNA assays: 10 mM Tris pH 7.5, 150 mM NaCl, 3.4 mM EDTA, 0.001% NP-40, 30 C
# Settings: tags: His6 N-terminal (pET28a); label: 5' 32P
# Method in brief: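 Purified wild-type or mutant RbFox RRM at increasing concentrations was equilibrated with 1 nM of 5′-radiolabelled RNA carrying 7 randomized nucleotides for 10 min in 50 µL. Unbound RNA was separated by 8% native PAGE and sequenced. Relative association constants came from read-count changes of each RNA species compared with the control reaction, normalised to the cognate motif.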
row,Binder,binding signal
1,B1,0.00773 KA relative to UGCAUGU
2,B2,0.0213 KA relative to UGCAUGU
3,B3,0.558 KA relative to UGCAUGU
4,B4,0.00821 KA relative to UGCAUGU
5,B5,0.00319 KA relative to UGCAUGU
6,B6,0.0123 KA relative to UGCAUGU
7,B7,0.00343 KA relative to UGCAUGU
8,B8,0.000358 KA relative to UGCAUGU
9,B9,0.0115 KA relative to UGCAUGU
10,B10,0.00593 KA relative to UGCAUGU
11,B11,0.0108 KA relative to UGCAUGU
12,B12,0.0192 KA relative to UGCAUGU
13,B13,0.0187 KA relative to UGCAUGU
14,B14,0.0118 KA relative to UGCAUGU
15,B15,0.00336 KA relative to UGCAUGU
16,B16,0.0059 KA relative to UGCAUGU
17,B17,0.00604 KA relative to UGCAUGU
18,B18,0.007 KA relative to UGCAUGU
19,B19,0.00572 KA relative to UGCAUGU
20,B20,0.016 KA relative to UGCAUGU
